# In all, about 310,000 compounds went through this assay and about 2,200 (0.71%) showed an effect of 50% or more. Effects have a minus sign here. Some of the results follow.
# Biological target: human ether-à-go-go-related gene (hERG) potassium channel (human, UniProt Q12809)
# Test: primary screen, population patch clamp on CHO cells stably expressing hERG
# Chain of human ether-à-go-go-related gene (hERG) potassium channel (Q12809 whole entry, looked up): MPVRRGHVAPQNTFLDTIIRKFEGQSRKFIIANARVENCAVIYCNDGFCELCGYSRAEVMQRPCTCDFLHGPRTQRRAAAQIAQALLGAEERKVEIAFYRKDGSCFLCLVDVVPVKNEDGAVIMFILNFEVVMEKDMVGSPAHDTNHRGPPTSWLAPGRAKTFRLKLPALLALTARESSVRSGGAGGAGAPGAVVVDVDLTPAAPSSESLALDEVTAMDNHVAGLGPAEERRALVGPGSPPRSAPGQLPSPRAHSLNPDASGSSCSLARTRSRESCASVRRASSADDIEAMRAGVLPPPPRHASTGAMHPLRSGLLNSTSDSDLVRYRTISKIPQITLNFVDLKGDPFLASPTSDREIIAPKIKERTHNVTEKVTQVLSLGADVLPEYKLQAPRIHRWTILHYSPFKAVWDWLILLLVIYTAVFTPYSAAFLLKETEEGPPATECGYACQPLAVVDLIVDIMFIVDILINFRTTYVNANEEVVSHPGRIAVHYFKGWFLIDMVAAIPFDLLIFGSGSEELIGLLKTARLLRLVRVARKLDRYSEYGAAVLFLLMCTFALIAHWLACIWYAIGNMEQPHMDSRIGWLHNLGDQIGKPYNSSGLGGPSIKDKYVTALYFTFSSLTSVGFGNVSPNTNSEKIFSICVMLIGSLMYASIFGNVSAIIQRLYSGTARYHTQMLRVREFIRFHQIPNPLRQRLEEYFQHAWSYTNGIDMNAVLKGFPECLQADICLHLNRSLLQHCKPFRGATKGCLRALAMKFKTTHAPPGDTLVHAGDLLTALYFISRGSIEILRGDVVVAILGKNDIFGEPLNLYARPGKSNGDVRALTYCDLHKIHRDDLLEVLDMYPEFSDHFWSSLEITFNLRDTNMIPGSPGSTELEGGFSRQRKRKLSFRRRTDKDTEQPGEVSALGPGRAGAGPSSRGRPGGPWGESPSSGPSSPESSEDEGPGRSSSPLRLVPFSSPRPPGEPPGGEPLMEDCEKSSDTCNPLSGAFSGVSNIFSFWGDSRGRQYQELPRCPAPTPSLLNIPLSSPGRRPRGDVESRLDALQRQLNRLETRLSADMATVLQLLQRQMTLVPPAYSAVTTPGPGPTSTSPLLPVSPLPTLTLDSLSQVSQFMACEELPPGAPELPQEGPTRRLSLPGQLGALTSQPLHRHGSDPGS
row,Compound,"hERG current change (%, negative = inhibition) at 1uM"
1,Cn1nnnc1SCC(=O)N1CCCCC1,3.59%
2,COC(C(=O)NNS(=O)(=O)c1ccc([N+](=O)[O-])cc1)c1ccccc1 (stereo not shown),12.5%
3,O=C(CCn1c(=O)[nH]c2ccccc2c1=O)N1CC=C(c2ccccc2)CC1,5.58%
4,O=C(Nc1ccc(F)cc1)C1COc2ccccc2O1 (stereo not shown),16.5%
5,COc1ccc(/C=C/C(=O)NC(=S)Nc2ccc(S(=O)(=O)Nc3nccnc3OC)cc2)cc1,3.71%
6,O=C(NCc1ccccn1)c1ccc(Cl)c(S(=O)(=O)Nc2ccccc2C(=O)NCc2ccccn2)c1,11.3%
7,Cc1nc(Cl)cc(N/N=C/c2ccccc2)n1,14.2%
8,O=C(c1cc([N+](=O)[O-])ccc1N1CCOCC1)N1CCCCC1,11.3%
9,CCCCCc1cc(O)c2c(C)cc(=O)oc2c1,9%
10,COc1ccc(C(=O)CSc2ncn[nH]2)cc1OC,5.09%
11,Cl.Oc1cccc(Nc2nc(NCC3CCCO3)c3ccccc3n2)c1 (stereo not shown),-28.1%
12,Cc1c(C(=O)N(C)Cc2cccc(F)c2)oc2c(Cl)cccc12,11.5%
13,CSc1nnc(-c2ccccc2Cl)o1,11.4%
14,Cn1c(=O)c2c(n(C)c1=O)=NC1(CCCCC1)N=2,5.44%
15,CCOc1ccc(CNC(=O)C2CCN(S(=O)(=O)N3CCCC3)CC2)cc1OC,15.7%
16,CCOC(=O)c1c(C)[nH]c(C(=O)COC(=O)CNC(=O)c2ccc(Br)cc2)c1C,4.43%
17,Cc1c(NC(=O)C2CCCNC2=O)c(=O)n(-c2ccccc2)n1C (stereo not shown),10.3%
18,O=C(NC(=S)Nc1nc(-c2ccccc2)cs1)c1cccnc1,4.59%
19,O=C1CCCC(=O)N1c1ccc(Oc2ccc(Cl)cc2)cc1,11%
20,C=C(Cl)COC(=O)[C@H]1C2C=CC(C2)C1C(=O)O (stereo partly shown),2.85%
21,O=C(c1ccc(C(F)(F)F)cc1)C1CCCN(Cc2ccncc2)C1 (stereo not shown),-7.99%
22,Cc1ccc(NC(=O)CCNS(=O)(=O)c2ccc3c(c2)c(=O)n(C)c(=O)n3C)cc1C,11.3%

row,Compound,"hERG current change (%, negative = inhibition) at 1uM"
1,CC(=O)Nc1ccc(N2S(=O)(=O)c3ccccc3S2(=O)=O)cc1,4.71%
2,CCOc1ccc(C(=O)NCc2ccco2)cc1,-4.13%
3,CC1CCN(C(=O)CN(c2ccc3c(c2)OCO3)S(C)(=O)=O)CC1,13%
4,O=S(=O)(/N=C(/NS(=O)(=O)c1ccccc1)c1ccccc1)c1ccccc1,16.8%
5,O=C1CC(c2ccccc2)CCc2sccc2N1 (stereo not shown),6.32%
6,COc1ccccc1Cn1[nH]nnc1=S,12.5%
7,CCn1c(CNC(=O)COc2ccc(C(C)C)cc2)nnc1SCC(=O)Nc1ccccc1F,-6.89%
8,O=C(NCc1ccncc1)C(=O)NCC1OCCCN1S(=O)(=O)c1ccccc1 (stereo not shown),9.43%
9,CCOC(=O)c1ccc(-n2c(C)nc3c(cnn3-c3ccccc3C)c2=O)cc1,12%
10,COc1ccc(CCNC(=O)C2CCN(C(=O)N(C)C)CC2)cc1OC,13.6%
11,OCCC1CN(Cc2ccc(F)cc2)CCN1CCCc1ccccc1 (stereo not shown),-55%
12,COc1ccc(N2CCN(CNC(=O)c3ccccc3)CC2)cc1,10.6%
13,CN(C)CCNC(=O)Nc1ccc([N+](=O)[O-])cc1,12.4%
14,CC(=O)N(c1nnc(-c2cccc(C)c2)s1)C1CCCC1,12.5%
15,CCOC(=O)C/C(C)=N\Nc1nc(-c2ccccc2)cs1,5.58%
16,COc1cc(NC(=O)NCC2CCN(Cc3ccccc3Cl)CC2)cc(OC)c1OC,11.6%
17,Cc1cc(C)cc(NC(=O)c2ccc(CNc3c(N4CCCC4)c(=O)c3=O)cc2)c1,20.3%
18,N#Cc1cc2c(nc1SC1CC(=O)N(c3ccccc3)C1=O)CCC2 (stereo not shown),8.23%
19,O=C(N/N=C/c1ccc2c(c1)OCO2)c1cc(-c2ccncc2)nc2ccccc12,10.4%
20,CCOc1ccccc1NC(=S)Nc1ccccc1F,10.7%
21,CCN(CC)S(=O)(=O)c1ccc(C)c(NC(=O)CSc2ncc(C(F)(F)F)cc2Cl)c1,2.99%
22,CCCC(=O)Nc1ccccc1-c1nnn(CC(=O)Nc2ccc(OCC)cc2)n1,2.2%

row,Compound,"hERG current change (%, negative = inhibition) at 1uM"
1,Cc1cc(C)n(-c2ccc(C)c(Cl)c2)n1,6.87%
2,C=C(C)c1cccc(C(C)(C)NC(=O)Nc2cccnc2)c1,14.6%
3,COC(=O)C1=C(c2ccccc2)C[C@@H]2CC[C@H]1N2C(=O)NC1CCCCC1,-2.72%
4,c1ccc(CCNc2nc(-c3cccnc3)cs2)cc1,-12%
5,COc1cccc(NC(=O)COc2ccc(C(=O)N3CCN(C)CC3)cc2)c1,15.4%
6,CC(=O)NCCn1c(SCC(=O)NCC2CCCO2)nc2ccccc2c1=O (stereo not shown),-3.33%
7,COc1ccc(-c2c(NC(=O)C(C)C)n(C)c3ccccc3c2=O)cc1,15.7%
8,Cc1ccc(N=Nc2c(O)n(CN3CCOCC3)c3ccccc23)cc1,11.1%
9,CNC(CC(C)C)C(=O)NC1C(=O)NC(CC(N)=O)C(=O)NC2C(=O)NC3C(=O)NC(C(=O)NC(C(=O)O)c4cc(O)cc(O)c4-c4cc3ccc4O)C(O)c3ccc(c(Cl)c3)Oc3cc2cc(c3OC2OC(CO)C(O)C(O)C2OC2C[C@](C)(N)C(O)C(C)O2)Oc2ccc(cc2Cl)C1O (stereo partly shown),11.1%
10,O=C1CCC(=O)N1N1C(=O)C2C3c4ccccc4C(c4ccccc43)C2C1=O (stereo not shown),17.5%
11,CC1CC(=O)N(CC(=O)N2CCCC2)c2ccccc2S1 (stereo not shown),-10.2%
12,Cc1c(C(=O)NCc2n[nH]c(=S)n2-c2ccc(F)cc2)cccc1[N+](=O)[O-],11.3%
13,Cc1ccc(S(=O)(=O)N(C)C)cc1NC(=O)CN1C(=O)NC2(CCCc3ccccc32)C1=O (stereo not shown),-0.276%
14,COc1ccccc1NC(=O)Cn1c(CCC(=O)O)ccc1-c1ccc(C)cc1,15.1%
15,O=C(CCN1C(=O)COc2ccccc21)NCc1ccco1,12.7%
16,Cc1cc(=O)n(CNC(=O)c2ccccc2)c(=S)[nH]1,6.87%
17,O=C(NCC(c1ccco1)N1CCc2ccccc21)c1c(F)cccc1F (stereo not shown),2.62%
18,O=C(COc1ccccc1C(=O)Nc1ccccc1)NCCc1ccccc1,28%
19,O=C(CN1CCN(S(=O)(=O)c2ccccc2)CC1)Nc1ccc(Cl)c(Cl)c1,2.02%
20,CN1CCN(c2ccc(NC(=O)c3ccc(-c4ccc(Cl)cc4)o3)cc2)CC1,15.1%
21,CCOc1cc(C(=O)Nc2ccon2)cc(OCC)c1OCC,-7.83%
22,O=C(O)C(=O)O.OC(CN1CCCC1)Cn1ccc2ccccc21 (stereo not shown),10.8%

row,Compound,"hERG current change (%, negative = inhibition) at 1uM"
1,C1CCN(Cc2nnnn2CC2CCCO2)CC1.Cl (stereo not shown),12.1%
2,CC(=O)Cc1nsc(NC(=O)c2cc(-c3ccccc3Cl)oc2C)n1,10.6%
3,NC1=NC2(CCCCCC2)n2c(nc3ccccc32)N1,-23.4%
4,O=c1c2ccccc2c(/C=N/NS(=O)(=O)c2ccccc2)c(O)n1-c1ccccn1,6.22%
5,COc1ccc(F)c(-c2nc(CN3CCC(c4ccccc4)CC3)c(C)o2)c1,-1.64%
6,Cc1ccccc1C(=O)Nc1ccc2c(c1)OCCO2,9.84%
7,O=C(NCC1COc2ccccc2O1)C1CCCN(S(=O)(=O)c2cccc3nsnc23)C1 (stereo not shown),5.82%
8,CCOC(=O)C(NC(C)=O)(N1CCc2ccccc2C1)C(F)(F)F (stereo not shown),9.57%
9,O=C(c1ccc([N+](=O)[O-])cc1)N1C=CC(C(F)(F)F)=NCC1,10.1%
10,CNC(=S)N(Cc1cc2ccc(OC)cc2[nH]c1=O)CC1CCCO1 (stereo not shown),5.17%
11,O=C(CN1C(=O)CSc2ncccc21)N1CCOCC1,-7.7%
12,COc1ccc(S(=O)(=O)N2CCOC2CNC(=O)C(=O)NCc2cccnc2)cc1C (stereo not shown),9.37%
13,O=C(CCNC(=O)c1ccco1)Nc1ccc(Cl)cc1F,9.55%
14,COc1cccc(-c2nnc(SCc3nc4ccccc4[nH]3)n2N)c1,-3.78%
15,O=C(CC(NCc1ccccn1)C(=O)O)Nc1ccccc1Cl (stereo not shown),12.3%
16,COc1ccc(C)cc1NC(=O)CCCNC(=O)Cn1cnc2sc(C)c(C)c2c1=O,10.2%
17,Cc1cc(NC(=O)CSc2ncccn2)no1,14.6%
18,CN(c1nc(-c2ccccc2)cs1)C1CCS(=O)(=O)C1 (stereo not shown),-2.58%
19,COC(=O)c1ccccc1NC(=O)Nc1c(C)n(C)n(-c2ccccc2)c1=O,7.05%
20,Cc1cc2ccccc2c(=O)n1CC(=O)NC1CCCCCC1,18.1%
21,COc1ccc(CCC(=O)NCc2ccccc2OC)cc1,8.29%
22,CC(=O)Nc1cc2c(cc1NC(=O)Cn1nc(-c3ccccc3)ccc1=O)OCCO2,8.85%

# From paper PMC4336329 (PLoS ONE, 2015)
